Source: PubChem BioAssay AID488969 (Vanderbilt High Throughput Screening Facility, 2010)
Over roughly 110,000 compounds, “z-score” has its median near -0.1; the highest 2% begin near 2. The list shows a part of the results. Activity calls are given as the source filed them.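 The calls were made as follows: active = z-score in the third read window above 3 or below -3; inactive = the rest.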

Each molecule was assayed against Metabotropic glutamate receptor 8 (Rattus norvegicus) (UniProt P70579) (assay: rat mGluR8 modulators via GIRK flux, primary screen, cell-based, thallium flux, HTS (AID 488969)). Conditions: HEK293 rat mGluR8, GIRK (G protein-gated inwardly rectifying potassium channel) thallium flux, FluoZin2; at 10 µM; stronger effect = higher value; submaximal glutamate (EC20) added with thallium.
UniProt P70579, sequence (P70579 whole entry, looked up): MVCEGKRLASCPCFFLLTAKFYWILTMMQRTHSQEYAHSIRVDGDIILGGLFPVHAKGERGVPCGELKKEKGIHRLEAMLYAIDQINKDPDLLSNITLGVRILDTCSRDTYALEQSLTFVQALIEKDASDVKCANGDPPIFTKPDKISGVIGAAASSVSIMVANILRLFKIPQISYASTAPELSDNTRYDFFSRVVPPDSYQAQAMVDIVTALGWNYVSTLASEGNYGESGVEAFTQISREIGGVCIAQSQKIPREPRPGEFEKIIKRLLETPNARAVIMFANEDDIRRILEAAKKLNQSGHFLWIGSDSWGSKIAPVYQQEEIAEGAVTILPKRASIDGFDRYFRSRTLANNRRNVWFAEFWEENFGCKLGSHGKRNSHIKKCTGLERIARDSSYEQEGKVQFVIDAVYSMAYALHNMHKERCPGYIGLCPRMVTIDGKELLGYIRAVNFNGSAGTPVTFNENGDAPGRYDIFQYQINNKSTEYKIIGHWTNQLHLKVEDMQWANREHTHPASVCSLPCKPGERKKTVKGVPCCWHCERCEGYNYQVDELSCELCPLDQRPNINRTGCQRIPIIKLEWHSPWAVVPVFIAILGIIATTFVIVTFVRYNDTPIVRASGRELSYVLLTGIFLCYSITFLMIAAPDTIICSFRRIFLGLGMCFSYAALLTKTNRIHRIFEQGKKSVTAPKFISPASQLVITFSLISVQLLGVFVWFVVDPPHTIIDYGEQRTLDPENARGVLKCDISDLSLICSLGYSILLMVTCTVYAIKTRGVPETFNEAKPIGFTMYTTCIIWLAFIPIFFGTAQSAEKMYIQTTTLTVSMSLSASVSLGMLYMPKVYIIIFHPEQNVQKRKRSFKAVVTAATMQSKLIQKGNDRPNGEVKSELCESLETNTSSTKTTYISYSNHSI

In order of falling z-score:
1. CCCC[N+](C)(C)CCC(=O)NC(C)(C)CS(=O)(=O)[O-]  1.2
2. COc1ccc(C(C(=O)NC2CCCC2)N(Cc2ccccc2)C(=O)CNC(=O)c2ccco2)cc1 (centres undefined)  1.11
3. COc1ccccc1N/N=C/c1c(CO)cnc(C)c1O  0.749
4. CC(=O)C1=C(C)NC(=O)NC1c1cc(Br)ccc1OCC(N)=O (centres undefined)  0.636
5. Cc1ccc(S(=O)(=O)N2CCCC2C(=O)O)cc1 (centres undefined)  0.451
6. COc1ccc(OC)c(C2N(c3cc(C)on3)C(=O)C3CCCN32)c1 (centres undefined)  0.389
7. O=[N+]([O-])c1cc(S(=O)(=O)N2CCCC2)ccc1N/N=C/c1cccs1  0.337
8. Cc1cccc(NC(=O)CN2CCN(CC(=O)Nc3cccc(C)c3)CC2)c1  0.324
9. O=C(N/N=C/c1ccc(O)c(O)c1O)/C(=C/c1ccc([N+](=O)[O-])cc1)NC(=O)c1ccccc1  0.321
10. Cn1cnnc1SCC(=O)Nc1ccc2nc(SCc3ccccc3)sc2c1  0.305
11. Cc1cc(=O)oc2c(CN3CCCCC3)c(O)c(Cl)cc12  0.27
12. COc1ccc(NS(=O)(=O)c2ccc(NC(=O)c3cnn4c(C(F)F)cc(-c5ccc(C)cc5)nc34)cc2)cc1  0.268
13. CC(=O)NC(Cc1ccccc1)C(=O)N1CCN(C(=O)c2cccs2)CC1 (centres undefined)  0.223
14. CC1=CCC2C(=O)N(C(C)c3ccccc3)C(=O)C2C1 (centres undefined)  0.21
15. CCC(C)(C)n1nnnc1C(c1ccccc1)N1CCN(C2CCCC2)CC1 (centres undefined)  0.195
16. CCCCNC(=O)CSc1nnc(Cc2ccccc2)n1CC  0.173
17. CC1(C)CSC(=S)N1S(=O)(=O)c1ccccc1  0.139
18. CC(=O)OCCN(CCOC(C)=O)c1c(C)[nH]c(=O)[nH]c1=O  0.103
19. Cc1c(N(C)C(=O)c2ccc3c(c2)OCO3)c(=O)n(-c2ccccc2)n1C  0.0364
20. O=C(c1oc(=O)c2ccccc2c1-c1ccccc1)N1CCC(O)CC1  0.0108
21. COc1ccc(NC(=S)Nc2cc(-c3ccccc3)[nH]n2)cc1Cl  0.00201
22. O=C(Nc1cccnc1)c1ccccc1Oc1ccccc1  -0.0244
23. COc1cc(N2CCCC2)c(OC)cc1/C=C(/C#N)c1ccc(Br)cc1  -0.0363
24. Cc1cc(Cl)ccc1NC(=S)NCC(C)C  -0.0377
25. COc1ccc(S(=O)(=O)Nc2ccccc2C(F)(F)F)cc1  -0.0378
26. O=C(Cn1c(SCC(=O)NC2CCCC2)nnc1-c1ccncc1)Nc1ccc2c(c1)OCO2  -0.0386
27. COC(=O)CSc1nc(SCc2ccccc2Cl)nc2c1CCCC2  -0.0407
28. Cc1cccc(NC(=S)NC2CC3CCCC(C2)N3CC(C)C)c1C (centres undefined)  -0.0583
29. O=C1CC(=C2c3ccccc3-c3ccccc32)C(=O)N1CCN1CCN(c2cccc(Cl)c2)CC1  -0.0614
30. O=C(c1ccco1)N1CCC(n2nnc3ccccc32)CC1  -0.0891
31. Cc1ccc(C(=O)CC(C(=O)O)n2ccc(C)n2)cc1 (centres undefined)  -0.0978
32. CCOCCCNC(=O)C1CCN(S(=O)(=O)c2ccc(C)cc2)CC1  -0.101
33. CC(=O)Oc1ccc(C(=O)Nc2cc(C)ccc2NC(=O)COc2ccccc2)cc1  -0.118
34. Cn1c(=O)c2c(n(Cc3ccccc3)c1=O)NC(=O)C2CC(=O)NCc1cccc(Cl)c1 (centres undefined)  -0.128
35. CCC1Oc2ccccc2N(CC(=O)Nc2ccc(OC)cc2OC)C1=O (centres undefined)  -0.129
36. CC(=O)N1CCc2cc(S(=O)(=O)NCCC(=O)N3CCN(Cc4ccccc4)CC3)ccc21  -0.133
37. N#Cc1c(NC(=O)Cn2nc(C(F)(F)F)c3c2CCCC3)sc2c1CCC2  -0.15
38. CC(C)(C)c1ccc(/C=N/NC(=O)Cc2c[nH]c3ccccc23)cc1  -0.159
39. CC1CN(Cc2nc3c(c(=O)n(C)c(=O)n3C)n2Cc2ccccc2)CC(C)O1 (centres undefined)  -0.162
40. Cc1ccc(C)c(N(CC(=O)NCc2ccc3c(c2)OCO3)C(=O)CCC(=O)Nc2ccccn2)c1  -0.166
41. COc1ccc(CCN2C(=O)C3C4CC(C5C(C(=O)N/N=C\c6ccc(Cl)cc6)=NOC45)C3C2=O)cc1OC (centres undefined)  -0.197
42. COc1ccc(Nc2nnc(SCC(=O)/C=C3/N(C)c4ccccc4C3(C)C)s2)cc1  -0.201
43. COc1cc(/C=C/C(=O)c2c(O)ccc3c(C)cc(=O)oc23)ccc1O  -0.219
44. Cc1nc2nc(CCc3ccccc3)nn2c(C)c1Cl  -0.237
45. CC(C)(C)SCCNC(=O)CN(c1ccc(F)c(Cl)c1)S(C)(=O)=O  -0.242
46. CNc1ccc(Br)cc(C(=O)/C=C/c2ccc(OC)cc2OC)c1=O  -0.255
47. Cc1ccc(NC(=O)C2(NC(=O)c3cccc(N4C(=O)CSC4c4ccccc4)c3)CCCCC2)cc1 (centres undefined)  -0.262
48. COc1cccc(C2(O)CCN(C(=O)C3CCC3)CC2)c1  -0.284
49. CCOc1ccc(-c2nc(C)c(C(C)=O)n2O)cc1  -0.288
50. O=C(NCc1ccco1)c1cnn2c(C(F)F)cc(-c3ccccc3)nc12  -0.312
51. Cc1ccc(O)c(CCc2ccccc2)n1  -0.325
52. COc1ccc(OC)c(C2CC(=O)N3CN(c4cccc(Cl)c4C)CSC3=C2C#N)c1 (centres undefined)  -0.332
53. O=C(OCn1nnc2ccccc2c1=O)c1ccc2ccccc2n1  -0.354
54. CN1C(=O)c2ccccc2OC1(C)Cc1ccccc1 (centres undefined)  -0.354
55. CC1(NC(=O)CC[N+](C)(C)CCO)CS(=O)(=O)CC1S(=O)(=O)[O-] (centres undefined)  -0.364
56. C=C(C)CSc1nc(C)c(Cc2ccccc2)c(=O)[nH]1  -0.365
57. O=C(NOC(=O)c1ccccc1Cl)c1cccs1  -0.383
58. Cc1nn2c(NCC(C)C)c3c(nc2c1-c1ccccc1)CCC3  -0.389
59. CC1=C(C)CC(C(=O)Nc2cccc([N+](=O)[O-])c2)C(C(=O)O)C1 (centres undefined)  -0.414
60. COC(=O)c1c(NC(=O)c2ccco2)sc2c1CCC2  -0.464
61. CCOC(=O)/C=C/C(=O)Nc1cccc([N+](=O)[O-])c1  -0.53
62. CCC(c1ccccc1)c1nc(-c2cccnc2)no1 (centres undefined)  -0.533
63. OC(COc1cccc2ccccc12)CN1CCCC1 (centres undefined)  -0.674
64. CCCCNC(=O)c1cnc2n(c1=O)CCS2  -0.697
65. COc1cc(C2C(C#N)=C(N)Oc3cc(C)n(CCN4CCOCC4)c(=O)c32)cc(OC)c1OC (centres undefined)  -0.721
66. O=c1nc2n(c3sc4c(c13)CCCC4)C(CBr)CS2 (centres undefined)  -0.8
67. CCOC(=O)c1ccc(CC2S/C(=C(\C#N)C(C)=O)NC2=O)cc1 (centres undefined)  -1.15
68. N#Cc1c(N)sc(=S)c2c1CCCCC2  -1.62

In the case of `O=C(Nc1nnc(-c2ccc(Cl)cc2)o1)c1ccccc1Br`, the z-score is reported as active: 5.35.
